# The supplement of paper PMC8728848
# The list shows a part of the results.
# Tests used:
# Assay in all cases: glycan array binding signal (z-score within array); higher = stronger binding
# Conditions in all cases: glycan notation: IUPAC condensed, linker removed
# GlcNAc(b1-4)GlcNAc = target: GlcNAc(b1-4)GlcNAc
# How it was run: (§1)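 The binding signal is a Z-score computed within each array. Data were drawn from 3228 arrays in the Consortium for Functional Glycomics database, restricted to those with a known protein sequence. Scores were averaged over arrays of the same protein sequence at different concentrations or buffers, and over linkers, and negative values can be taken as non-binding.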
# [1] = target: GlcNAc(b1-4)GlcNAc(b1-4)GlcNAc
# How it was run: as §1
# [2] = target: GlcNAc(b1-4)GlcNAc(b1-4)GlcNAc(b1-4)GlcNAc(b1-4)GlcNAc
# How it was run: as §1
# [3] = target: GlcNAc(b1-4)GlcNAc(b1-4)GlcNAc(b1-4)GlcNAc(b1-4)GlcNAc(b1-4)GlcNAc
# How it was run: as §1
# [4] = target: GlcNAc(b1-4)[GlcNAc(b1-6)]GalNAc
# How it was run: as §1
# [5] = target: GlcNAc(b1-6)Gal(b1-4)GlcNAc
# How it was run: as §1
# GlcNAc(b1-6)GalNAc = target: GlcNAc(b1-6)GalNAc
# How it was run: as §1
# GlcNAc3Prop(b1-4)GlcNAc = target: GlcNAc3Prop(b1-4)GlcNAc
# How it was run: as §1
# [6] = target: GlcNAc6S(b1-3)Gal(b1-4)GlcNAc
# How it was run: as §1
# Kdn(a2-3)Gal(b1-3)GalNAc = target: Kdn(a2-3)Gal(b1-3)GalNAc
# How it was run: as §1
# Kdn(a2-3)Gal(b1-3)GlcNAc = target: Kdn(a2-3)Gal(b1-3)GlcNAc
# How it was run: as §1
# Kdn(a2-3)Gal(b1-4)Glc = target: Kdn(a2-3)Gal(b1-4)Glc
# How it was run: as §1
# Kdn(a2-3)Gal(b1-4)GlcNAc = target: Kdn(a2-3)Gal(b1-4)GlcNAc
# How it was run: as §1
# [7] = target: Kdn(a2-3)Gal(b1-4)[Fuc(a1-3)]GlcNAc
# How it was run: as §1
# Kdn(a2-6)Gal(b1-4)GlcNAc = target: Kdn(a2-6)Gal(b1-4)GlcNAc
# How it was run: as §1
# [8] = target: Man(a1-2)Man(a1-2)Man(a1-3)Man
# How it was run: as §1
# [9] = target: Man(a1-2)Man(a1-2)Man(a1-6)[Man(a1-3)]Man
# How it was run: as §1
# Man(a1-2)Man(a1-3)Man = target: Man(a1-2)Man(a1-3)Man
# How it was run: as §1
# [10] = target: Man(a1-2)Man(a1-3)[Man(a1-2)Man(a1-6)]Man
# How it was run: as §1
# [11] = target: Man(a1-2)Man(a1-3)[Man(a1-2)Man(a1-6)]Man(a1-6)[Man(a1-2)Man(a1-2)Man(a1-3)]Man
# How it was run: as §1
# [12] = target: Man(a1-2)Man(a1-3)[Man(a1-2)Man(a1-6)]Man(a1-6)[Man(a1-2)Man(a1-2)Man(a1-3)]Man(b1-4)GlcNAc(b1-4)GlcNAc
# How it was run: as §1
# [13] = target: Man(a1-2)Man(a1-3)[Man(a1-6)]Man(a1-6)[Man(a1-2)Man(a1-3)]Man(b1-4)GlcNAc(b1-4)GlcNAc
# How it was run: as §1
# [14] = target: Man(a1-2)Man(a1-6)[Man(a1-3)]Man(a1-6)[Man(a1-2)Man(a1-2)Man(a1-3)]Man
# How it was run: as §1
# [15] = target: Man(a1-2)Man(a1-6)[Man(a1-3)]Man(a1-6)[Man(a1-2)Man(a1-2)Man(a1-3)]Man(b1-4)GlcNAc(b1-4)GlcNAc
# How it was run: as §1
# Man(a1-3)[Man(a1-6)]Man = target: Man(a1-3)[Man(a1-6)]Man
# How it was run: as §1
# [16] = target: Man(a1-3)[Man(a1-6)]Man(a1-6)[Man(a1-2)Man(a1-3)]Man(b1-4)GlcNAc(b1-4)GlcNAc
# How it was run: as §1
# [17] = target: Man(a1-3)[Man(a1-6)]Man(a1-6)[Man(a1-3)]Man
# How it was run: as §1
# [18] = target: Man(a1-3)[Man(a1-6)]Man(a1-6)[Man(a1-3)]Man(b1-4)GlcNAc(b1-4)GlcNAc
# How it was run: as §1
# [19] = target: Man(a1-3)[Man(a1-6)]Man(b1-4)GlcNAc(b1-4)GlcNAc
# How it was run: as §1
# Man(a1-6)Man = target: Man(a1-6)Man
# How it was run: as §1
# Man(b1-4)GlcNAc = target: Man(b1-4)GlcNAc
# How it was run: as §1
# Neu5Ac(a2-3)Gal = target: Neu5Ac(a2-3)Gal
# How it was run: as §1
# [20] = target: Neu5Ac(a2-3)Gal(b1-3)GalNAc
# How it was run: as §1
# [21] = target: Neu5Ac(a2-3)Gal(b1-3)GalNAc(b1-3)Gal(a1-4)Gal(b1-4)Glc
# How it was run: as §1
# [22] = target: Neu5Ac(a2-3)Gal(b1-3)GalNAc(b1-3)Gal(b1-4)GlcNAc
# How it was run: as §1
# [23] = target: Neu5Ac(a2-3)Gal(b1-3)GalNAc(b1-4)[Neu5Ac(a2-3)]Gal(b1-4)Glc
# How it was run: as §1
# [24] = target: Neu5Ac(a2-3)Gal(b1-3)GalNAc6S
# How it was run: as §1
# [25] = target: Neu5Ac(a2-3)Gal(b1-3)GlcNAc
# How it was run: as §1
# [26] = target: Neu5Ac(a2-3)Gal(b1-3)GlcNAc(b1-3)Gal(b1-3)GlcNAc
# How it was run: as §1
# [27] = target: Neu5Ac(a2-3)Gal(b1-3)GlcNAc6S
# How it was run: as §1
# [28] = target: Neu5Ac(a2-3)Gal(b1-3)[Fuc(a1-4)]GlcNAc
# How it was run: as §1
# [29] = target: Neu5Ac(a2-3)Gal(b1-3)[Fuc(a1-4)]GlcNAc(b1-3)Gal(b1-3)[Fuc(a1-4)]GlcNAc
# How it was run: as §1
# [30] = target: Neu5Ac(a2-3)Gal(b1-3)[Fuc(a1-4)]GlcNAc(b1-3)Gal(b1-4)[Fuc(a1-3)]GlcNAc
# How it was run: as §1
# [31] = target: Neu5Ac(a2-3)Gal(b1-3)[Neu5Ac(a2-3)Gal(b1-4)]GlcNAc
# How it was run: as §1
# [32] = target: Neu5Ac(a2-3)Gal(b1-3)[Neu5Ac(a2-6)]GalNAc
# How it was run: as §1
# Neu5Ac(a2-3)Gal(b1-4)Glc = target: Neu5Ac(a2-3)Gal(b1-4)Glc
# How it was run: as §1
# [33] = target: Neu5Ac(a2-3)Gal(b1-4)GlcNAc
# How it was run: as §1
# [34] = target: Neu5Ac(a2-3)Gal(b1-4)GlcNAc(b1-2)Man(a1-3)[GlcNAc(b1-2)Man(b1-4)GlcNAc(b1-2)Man(a1-6)]Man(b1-4)GlcNAc(b1-4)GlcNAc
# How it was run: as §1
# [35] = target: Neu5Ac(a2-3)Gal(b1-4)GlcNAc(b1-2)Man(a1-3)[Neu5Ac(a2-6)Gal(b1-4)GlcNAc(b1-2)Man(a1-6)]Man(b1-4)GlcNAc(b1-4)GlcNAc
# How it was run: as §1
# [36] = target: Neu5Ac(a2-3)Gal(b1-4)GlcNAc(b1-3)Gal(b1-3)GlcNAc
# How it was run: as §1
# [37] = target: Neu5Ac(a2-3)Gal(b1-4)GlcNAc(b1-3)Gal(b1-4)GlcNAc
# How it was run: as §1
# [38] = target: Neu5Ac(a2-3)Gal(b1-4)GlcNAc(b1-3)Gal(b1-4)GlcNAc(b1-3)Gal(b1-4)GlcNAc
# How it was run: as §1
# [39] = target: Neu5Ac(a2-3)Gal(b1-4)GlcNAc(b1-3)Gal(b1-4)[Fuc(a1-3)]GlcNAc
# How it was run: as §1
# [40] = target: Neu5Ac(a2-3)Gal(b1-4)GlcNAc(b1-3)GalNAc
# How it was run: as §1
# [41] = target: Neu5Ac(a2-3)Gal(b1-4)GlcNAc(b1-6)[Gal(b1-3)]GalNAc
# How it was run: as §1
# [42] = target: Neu5Ac(a2-3)Gal(b1-4)GlcNAc(b1-6)[Neu5Ac(a2-3)Gal(b1-3)]GalNAc
# How it was run: as §1
# [43] = target: Neu5Ac(a2-3)Gal(b1-4)GlcNAc6S
# How it was run: as §1
binder,measurement,setting,value
"Sialidase (Vibrio cholerae), P37060 (protein) GAMALFDYNATGDTEFDSPAKQGWMQDNTNNGSGVLTNADGMPAWLVQGIGGRAQWTYSLSTNQHAQASSFGWRMTTEMKVLSGGMITNYYANGTQRVLPIISLDSSGNLVVEFEGQTGRTVLATGTAATEYHKFELVFLPGSNPSASFYFDGKLIRDNIQPTASKQNMIVWGNGSSNTDGVAAYRDIKFEIQGDALNGSMALFDYNATGDTEFDSPAKQGWMQDNTNNGSGVLTNADGMPAWLVQGIGGRAQWTYSLSTNQHAQASSFGWRMTTEMKVLSGGMITNYYANGTQRVLPIISLDSSGNLVVEFEGQTGRTVLATGTAATEYHKFELVFLPGSNPSASFYFDGKLIRDNIQPTASKQNMIVWGNGSSNTDGVAAYRDIKFEIQGDLQALGMALFDYNATGDTEFDSPAKQGWMQDNTNNGSGVLTNADGMPAWLVQGIGGRAQWTYSLSTNQHAQASSFGWRMTTEMKVLSGGMITNYYANGTQRVLPIISLDSSGNLVVEFEGQTGRTVLATGTAATEYHKFELVFLPGSNPSASFYFDGKLIRDNIQPTASKQNMIVWGNGSSNTDGVAAYRDIKFEIQGD",glycan array binding signal (z-score),GlcNAc(b1-4)GlcNAc,-0.452
same,glycan array binding signal (z-score),[1],-0.652
same,glycan array binding signal (z-score),[2],-0.605
same,glycan array binding signal (z-score),[3],-0.662
same,glycan array binding signal (z-score),[4],-0.547
same,glycan array binding signal (z-score),[5],-0.492
same,glycan array binding signal (z-score),GlcNAc(b1-6)GalNAc,-0.648
same,glycan array binding signal (z-score),GlcNAc3Prop(b1-4)GlcNAc,-0.102
same,glycan array binding signal (z-score),[6],-0.434
same,glycan array binding signal (z-score),Kdn(a2-3)Gal(b1-3)GalNAc,-0.286
same,glycan array binding signal (z-score),Kdn(a2-3)Gal(b1-3)GlcNAc,-0.571
same,glycan array binding signal (z-score),Kdn(a2-3)Gal(b1-4)Glc,-0.108
same,glycan array binding signal (z-score),Kdn(a2-3)Gal(b1-4)GlcNAc,-0.198
same,glycan array binding signal (z-score),[7],-0.064
same,glycan array binding signal (z-score),Kdn(a2-6)Gal(b1-4)GlcNAc,-0.384
same,glycan array binding signal (z-score),[8],-0.515
same,glycan array binding signal (z-score),[9],-0.609
same,glycan array binding signal (z-score),Man(a1-2)Man(a1-3)Man,-0.527
same,glycan array binding signal (z-score),[10],-0.369
same,glycan array binding signal (z-score),[11],-0.629
same,glycan array binding signal (z-score),[12],0.193
same,glycan array binding signal (z-score),[13],-0.076
same,glycan array binding signal (z-score),[14],-0.524
same,glycan array binding signal (z-score),[15],-0.344
same,glycan array binding signal (z-score),Man(a1-3)[Man(a1-6)]Man,-0.644
same,glycan array binding signal (z-score),[16],-0.516
same,glycan array binding signal (z-score),[17],-0.625
same,glycan array binding signal (z-score),[18],-0.231
same,glycan array binding signal (z-score),[19],-0.547
same,glycan array binding signal (z-score),Man(a1-6)Man,-0.099
same,glycan array binding signal (z-score),Man(b1-4)GlcNAc,-0.608
same,glycan array binding signal (z-score),Neu5Ac(a2-3)Gal,0.621
same,glycan array binding signal (z-score),[20],1.15
same,glycan array binding signal (z-score),[21],-0.275
same,glycan array binding signal (z-score),[22],-0.191
same,glycan array binding signal (z-score),[23],1.52
same,glycan array binding signal (z-score),[24],2.17
same,glycan array binding signal (z-score),[25],1.47
same,glycan array binding signal (z-score),[26],-0.379
same,glycan array binding signal (z-score),[27],2.64
same,glycan array binding signal (z-score),[28],0.801
same,glycan array binding signal (z-score),[29],5.53
same,glycan array binding signal (z-score),[30],1.51
same,glycan array binding signal (z-score),[31],1.34
same,glycan array binding signal (z-score),[32],2.8
same,glycan array binding signal (z-score),Neu5Ac(a2-3)Gal(b1-4)Glc,1.6
same,glycan array binding signal (z-score),[33],-0.315
same,glycan array binding signal (z-score),[34],-0.457
same,glycan array binding signal (z-score),[35],6.62
same,glycan array binding signal (z-score),[36],-0.398
same,glycan array binding signal (z-score),[37],4.64
same,glycan array binding signal (z-score),[38],0.256
same,glycan array binding signal (z-score),[39],0.579
same,glycan array binding signal (z-score),[40],-0.105
same,glycan array binding signal (z-score),[41],-0.143
same,glycan array binding signal (z-score),[42],0.011
same,glycan array binding signal (z-score),[43],2.73
